In PubChem BioAssay AID463173 (ICCB-Longwood Screening Facility, Harvard Medical School, 2010):
In all, about 52,000 compounds went through this assay and about 1,700 (3.3%) were called active. Cut-off read from the data, not from the text of the source: active = survival mostly below about 52% (no sharp cut-off); inactive = mostly above about 56%. The list shows a part of the results.

system: Wild type; assay: S. aureus survival, RN4220 and DeltatarO strains – OD600, teichoic acid synthesis inhibitors, primary screen (AID 463173); conditions: S. aureus RN4220 wild type/DeltatarO growth, OD600, 18 h, active compounds read low, screened at 18.75 µg/mL (by protocol)

Row | SMILES | survival
1 | CCc1cc2c(cc3c(=O)n(CC(=O)NCc4cc(Br)ccc4OC)ncn32)s1 | inactive: 127%
2 | CCOc1ccc(NC(=O)C2CCN(S(=O)(=O)c3c(C)noc3/C=C/c3cccs3)CC2)cc1 | inactive: 115%
3 | CCCCNC(=O)CN1C(=O)COc2ccc(S(=O)(=O)N3CCCCCC3)cc21 | inactive: 88%
4 | COc1ccc(C(=O)Nc2ccc3oc(-c4ccc5ccccc5c4)nc3c2)cc1Br | inactive: 71%
5 | Cn1cccc1-c1cc2n(n1)CCC(=O)N2CCCC(=O)NCc1ccc(F)cc1 | inactive: 92%
6 | CCOc1ccc(-c2nnc(SCC(=O)c3ccccc3)n2-c2ccccc2)cc1 | inactive: 113%
7 | COC(=O)CNC(=O)N1CCN(S(=O)(=O)c2ccc3c(ccn3C)c2)CC1 | inactive: 79%
8 | Cc1cc(=O)[nH]c2nnc(SCc3ccc(C(F)(F)F)cc3)n12 | inactive: 91%
9 | Cc1ccc(NC(=O)c2ncoc2-c2ccco2)cc1Cl | inactive: 81%
10 | Cc1cccc(C)c1NC(=O)Cn1c(SCC(=O)NCc2ccccc2)nc2ccccc21 | inactive: 72%
11 | COc1ccc2cc(CNc3ccc(OC)c(OC)c3)c(=O)n(CC(=O)Nc3ccccc3F)c2c1 | inactive: 128%
12 | CCOC(=O)c1[nH]c(C)c(CCC(=O)Nc2cccc(SC)c2)c1C | inactive: 76%
13 | COc1ccccc1C(=O)NCC(=O)O | inactive: 120%
14 | O=S(=O)(c1ccc(-c2csc(=Nc3ccc(OC(F)(F)Cl)cc3)n2CCCO)cc1)N1CCCC1 | inactive: 132%
15 | CC(C)CCNC(=O)c1ccc2c(c1)N(Cc1ccccc1F)C(=O)c1ccccc1S2(=O)=O | inactive: 89%
16 | Fc1cccc(Cl)c1CNCCSc1nnnn1-c1ccccc1 | inactive: 81%
17 | N#CCn1c2ccc(Cl)cc2c2nc3ccccc3nc21 | inactive: 114%
18 | COc1cccc(C(=O)N(Cc2ccco2)c2ccccn2)c1 | inactive: 103%
19 | O=C(CNC(=O)c1ccccc1F)OCc1cc(=O)n2nc(C3CCCCC3)sc2n1 | inactive: 68%
20 | CC(=O)Nc1ccc(NC(=O)CCSCCc2ccccn2)cc1 | inactive: 131%
21 | CCC(=O)C1=C(c2ccc(OC)c(OC)c2)N(C(=O)CC)n2c(CC)nnc2S1 | inactive: 55%
22 | Cc1ccc(NC(=O)c2c(NC(=O)Cc3ccccc3)sc3c2CCCC3)cc1 | inactive: 49%

Row | SMILES | survival
23 | CCOc1ccc(CCNC(=O)CN2C(=O)COc3ccc(S(=O)(=O)N4CCCCCC4)cc32)cc1 | inactive: 71%
24 | CC(=O)c1cccc(NC(=O)Cn2c(=O)oc3cc(S(=O)(=O)N4CCCC4)ccc32)c1 | inactive: 149%
25 | CN(C)c1ccc(-c2nnc3n(Cc4ccccc4)c(=O)c4ccccc4n23)cc1 | inactive: 83%
26 | N#Cc1c(-n2ncnc2-c2cccc(Br)c2)sc2c1CCCCC2 | inactive: 45%
27 | COc1ccc(-n2c(SCC(=O)Nc3cccc(C)c3C)nc3c([nH]c4ccccc43)c2=O)cc1 | inactive: 95%
28 | CN(C)c1ccc(CNC(=O)c2ccc(NC(=O)N3CCCCc4ccccc43)cc2)cc1 | inactive: 131%
29 | O=C(CSc1nnc(-c2ccncc2)n1Cc1ccco1)OC1CCCCC1 | inactive: 101%
30 | CC(C)(C)c1ccc(Oc2ccc(NC(=O)CCC(=O)OCC(=O)c3ccccc3)cc2)cc1 | inactive: 86%
31 | Cc1ccc2oc(=O)c3cc(C(=O)N4CCN(c5ccccc5F)CC4)sc3c2c1 | inactive: 80%
32 | O=C(CNCc1ccco1)Nc1cccc(OC(F)(F)F)c1 | inactive: 119%
33 | Cc1ccc(Cl)cc1N1CCN(C(=O)CCCn2c(=O)[nH]c3ccc(Br)cc3c2=O)CC1 | inactive: 21%
34 | CCc1ccccc1NC(=O)C1CCN(c2cnccn2)CC1 | inactive: 82%
35 | CCS(=O)(=O)C(=C1NCCO1)S(=O)(=O)CC | inactive: 109%
36 | COc1cc(NC(=O)CSc2nccn2C)cc(OC)c1OC | inactive: 76%
37 | Cc1csc(=Nc2ccccc2)n1-c1ccccc1 | inactive: 94%
38 | COc1ccc2c(c1)c1c(c(=O)n(-c3ccc(OC)c(OC)c3)c(=O)n1Cc1ccccc1F)n2C | inactive: 90%
39 | CC(=O)c1nnn(-c2ccc(C)cc2Cl)c1C | inactive: 84%
40 | CC(=O)c1ccc(Nc2ccc3cc(S(=O)(=O)N4CCCC4)ccc3n2)cc1 | inactive: 72%
41 | O=C(CCn1cnnn1)Nc1cc(C(F)(F)F)cc(C(F)(F)F)c1 | inactive: 84%
42 | CC(C)Oc1cccc(C2CC(=O)Nc3cc4c(cc32)OCO4)c1 (stereo not drawn) | inactive: 87%
43 | CCCCSCCCNC(=O)c1cn(C)c2ccc(S(=O)(=O)N3CCCCCC3)cc2c1=O | inactive: 72%
44 | O=C(NCCS(=O)(=O)N1CCN(c2ccc(F)cc2)CC1)c1cccc(C(F)(F)F)c1 | inactive: 72%

Row | SMILES | survival
45 | CC(C)CCn1nnc2sc(-c3ccccc3)cc2c1=O | inactive: 91%
46 | CS(=O)(=O)N(CC(=O)Nc1ccc2c(c1)OCCO2)c1ccccc1 | inactive: 110%
47 | O=C(Nc1cccc(C(=O)N2CCN(c3cccc(Cl)c3)CC2)c1)c1nsc2ccccc12 | inactive: 71%
48 | COc1cc(OC)c(NC(=O)c2nn(-c3ccc(C)cc3)c(=O)c3c2c2ccccc2n3C)cc1Cl | inactive: 75%
49 | CCc1ccccc1NC(=O)c1ccc2c(SCC(=O)O)c3c(nc2c1)CCC3 | inactive: 81%
50 | Cc1ccccc1Cn1c2ccccc2c2cnn(CC(=O)NCC(C)c3ccccc3)c(=O)c21 (stereo not drawn) | inactive: 88%
51 | O=C(NCc1ccccc1Cl)c1ccc(Cn2c(SCc3ccccc3)nc3cccnc32)cc1 | inactive: 68%
52 | CCOC(=O)C1CCN(C(=O)c2ccc(NC(=O)c3nsc4ccccc34)cc2)CC1 | inactive: 129%
53 | CSc1ccc(CCNC(=O)C(C)n2nc(C)c3sc4ccccc4c3c2=O)cc1 (stereo not drawn) | inactive: 63%
54 | CC1=CCC2(CO)COC(c3ccccc3O)C1C2 (stereo not drawn) | inactive: 111%
55 | O=C(CCn1ccc2cc(S(=O)(=O)N3CCCC3)ccc21)NCc1cccc(Cl)c1 | active: -1%
56 | Cc1ccc(NC(=O)c2ccc(CNS(=O)(=O)c3ccc4c(c3)C(C)(C)C(=O)N4C)cc2)cc1C | inactive: 85%
57 | CC(=O)N1c2ccc(S(=O)(=O)NCC3CCC(C(=O)Nc4ccc(C)c(C)c4)CC3)cc2CC1C (stereo not drawn) | inactive: 105%
58 | Cc1cc(C(=O)NCc2cccc(Br)c2)c2c(C)nn(-c3ccccc3)c2n1 | inactive: 120%
59 | COCCCn1c(=N)c(C(=O)NCc2cccnc2)cc2c(=O)n3cc(C)ccc3nc21 | inactive: 67%
60 | COc1ccc(OC)c(Nc2ncnc3c2nc2n3CCCC2)c1 | inactive: 77%
61 | COc1cc(CCNC(=O)c2ccc3c(c2)c(C)c(C)n3Cc2cccc(C)c2)cc(OC)c1OC | inactive: 89%
62 | CCc1nnc(SCc2ccc(OC)cc2)c2cc3sc(C)cc3n12 | inactive: 88%
63 | CCOc1ccc(NC(=O)c2nc3nc(C)cc(C(F)F)n3n2)cc1 | inactive: 69%
64 | Cc1cc(C)c2c(-n3cccc3)c(C(=O)NCc3cccc(F)c3)sc2n1 | inactive: 93%
65 | C=CCN(CC=C)C(=O)C(C)N1CCN(C2CCCCC2)CC1 (stereo not drawn) | inactive: 112%
66 | Oc1ccc(-c2nc(-c3ccccc3)c(-c3ccc(Br)cc3)[nH]2)cc1 | active: -2%

Row | SMILES | survival
67 | Cc1nn(-c2ccccc2)c2c1cc1c(=O)n(C)c(=O)nc-1n2-c1cccc(Cl)c1 | inactive: 83%
68 | COc1ccccc1NC(=O)C1CCN(S(=O)(=O)c2ccc3[nH]c4c(c3c2)CCCCC4)CC1 | inactive: 125%
69 | Cc1cc(C)c(NC(=O)CCn2c(=O)c3cccn3c3ccccc32)c(C)c1 | inactive: 76%
70 | CCN1CCN(C(c2ccc(SC)cc2)c2c(O)cc(C)n(Cc3ccco3)c2=O)CC1 (stereo not drawn) | inactive: 95%
71 | COc1ccc(-c2cc(=O)c3cc(OCC(=O)OC(C)C)ccc3o2)cc1 | inactive: 121%
72 | CCOc1ccc(NC(=O)C2CCC(N3C(=O)C4CC=CCC4C3=O)CC2)cc1 (stereo not drawn) | inactive: 119%
73 | COc1cc(NC(=O)CCS(=O)(=O)c2nc(-c3ccc4c(c3)OCO4)cc(C(F)(F)F)n2)cc(OC)c1OC | inactive: 92%
74 | COC(=O)c1sc(N2C(=O)c3oc4ccccc4c(=O)c3C2c2ccc(O)cc2)nc1C (stereo not drawn) | inactive: 132%
75 | COCCCN1C(=O)c2[nH]nc(-c3ccccc3O)c2C1c1ccc(OCc2ccccc2)cc1 (stereo not drawn) | inactive: 22%
76 | Cc1ccc(NC(=O)Cn2c(=O)n(CCCCC(=O)NCCc3ccc(Cl)cc3)c(=O)c3ccccc32)cc1 | inactive: 107%
77 | O=C(CSC1=NCCS1)Nc1ccnc2ccccc12 | inactive: 91%
78 | COc1ccc(CNC(=O)CN2C(=O)COc3ccc(S(=O)(=O)N4CCC(C)CC4)cc32)cc1 | inactive: 93%
79 | CCc1c(C)sc2c1CCN(C(=O)Nc1cc(C)cc(C)c1)C2c1ccccc1 (stereo not drawn) | inactive: 47%
80 | Cc1ccccc1-c1nnc(N(C(=O)C2CC2)C2CCCC2)s1 | inactive: 103%
81 | COCCCNC(=O)CSc1nc2cc3c(cc2c(=O)n1CCCCCC(=O)NCc1ccc2c(c1)OCO2)OCO3 | inactive: 55%
82 | Cc1nc(NC(=O)c2c(-c3ccccc3)c(-c3ccccc3)nn(C)c2=O)sc1C | inactive: 55%
83 | CCCCNC(=O)C1CCC(CNS(=O)(=O)c2ccc(C)cc2)CC1 (stereo not drawn) | inactive: 77%
84 | CCc1ccc(S(=O)(=O)Nc2ccc3[nH]c(=O)sc3c2)cc1 | inactive: 70%
85 | Cc1cccc(NC(=O)c2sc3nc4c(cc3c2N)CN(C(C)C)CC4)c1 | inactive: 78%
86 | Cc1cccc(N2CCN(C(=O)CN3C(=O)COc4ccc(S(=O)(=O)N5CCOCC5)cc43)CC2)c1C | inactive: 83%
87 | COc1ccc2[nH]cc(NC(=O)NCc3ccncc3)c(=O)c2c1 | inactive: 110%
88 | CC1=C(C(=O)OC2CCCCCC2)C(c2cccc(F)c2F)CC(=O)N1 (stereo not drawn) | inactive: 123%
